Assay results: PubChem BioAssay AID602179 (National Center for Advancing Translational Sciences (NCATS), 2012)
Among all 390,000 compounds or so, about 360 (0.092%) were called active. The shares of active, inactive and inconclusive entries below differ from those in the screen. Calls come from the whole dose curve; as a rule, active = well fitted inhibition curve with a large enough effect; inconclusive = small, poorly fitted or top-dose-only effect; inactive = no such curve, though single readings can be large or run the other way. A potency beside an inconclusive call is a rough fit, not a confirmed value.

biological target: Isocitrate dehydrogenase [NADP] cytoplasmic (Homo sapiens) (UniProt O75874); assay: qHTS for Inhibitors of mutant isocitrate dehydrogenase 1 (IDH1): qHTS; details: IDH1-R132H enzyme, NADPH consumption, diaphorase/resazurin fluorescence; series mostly up to 76.6 µM; note: nearly all actives have a fitted effect of over 65% in size
Outline: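 IDH1-R132H (0.5 ug/mL dispensed) in pH 7.5 Tris buffer was preincubated 30 min with compound, then given a substrate mix of 0.016 mM NADPH and 2 mM alpha-KG for 80 min at room temperature; remaining NADPH was read by diaphorase/resazurin fluorescence.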
Potency is the fitted concentration of half-maximal effect; tags give direction and shape of the fitted curve.

| SMILES | Potency |
| --- | --- |
| CCCCCSc1nc(N2CCOCC2)c2c(c1C#N)CC(C)(C)OC2 | inconclusive: 10.4 µM [inhibitor, full curve, poor fit] |
| C=C1C(=O)c2sccc2C(c2ccc(OC)c(OC)c2)C1COC(C)=O (stereo unspecified) | inconclusive: 58.5 µM [inhibitor, partial curve, poor fit] |
| Cc1ccc(C)c(NC(=O)CN(C)C(=O)[C@@H](NC(=O)c2ccc(C(C)(C)C)cc2)C(C)C)c1 | inconclusive: 44.7 µM [inhibitor, single point] |
| COc1cc(/C=C2\SC(=S)N(NC(=O)c3ccc(O)c(OC)c3)C2=O)ccc1O | inconclusive: 41.4 µM [inhibitor, partial curve] |
| CC(=O)Oc1ccc2c(=O)c(Oc3ccccc3[N+](=O)[O-])coc2c1 | inconclusive: 46.5 µM [inhibitor, partial curve] |
| CC1CCCCN1c1nc(-c2ccncc2)nc2ccccc12 (stereo unspecified) | inconclusive: 52.1 µM [inhibitor, single point] |
| COC(=O)c1ccc(NCC(=O)c2ccccc2)cc1 | inconclusive: 52.1 µM [inhibitor, single point] |
| Cc1ccc(CSc2nnnn2C)cc1 | inactive |
| Cc1cccc(-c2c3c(=O)n(C)c(=O)n(C)c3cn2-c2cc(N)c(Cl)cc2Cl)c1 | active: 35.5 µM |
| Cc1ccc(C)c(Nc2c([N+](=O)[O-])c(=O)oc3ccccc23)c1 | inactive |
| Cn1cc(S(=O)(=O)N2CCCCCC2)cc1C(=O)NCc1ccccc1Cl | inactive |
| Clc1ccc(-c2csc(NNC3=NCCCCC3)n2)cc1 | inconclusive: 11.7 µM [inhibitor, full curve] |
| O=S(=O)(Nc1nc2n(n1)C(c1ccc(F)cc1)C=C(c1ccccc1)N2)c1ccc(Cl)cc1 (stereo unspecified) | inconclusive: 50.1 µM [inhibitor, partial curve, poor fit] |
| COc1cc(/C=C2\S/C(=N/S(=O)(=O)Cc3ccccc3)NC2=O)c([N+](=O)[O-])cc1OC | inactive |
| CCc1ccc(-c2nc(CN3CCCC(C(=O)N4CCN(c5cc(Cl)ccc5C)CC4)C3)c(C)o2)cc1 (stereo unspecified) | inconclusive: 50.1 µM [inhibitor, single point] |
| Cc1cccc(N(Cc2cc3ccccc3[nH]c2=O)S(=O)(=O)c2ccccc2)c1 | inactive |
| CCN(CC)C(=O)[C@H]1C[C@H](CC(=O)NC/C=C(\C)CCC=C(C)C)C(=O)N2CCc3c([nH]c4cc(CCC(=O)N(C)C)ccc34)[C@]12C | inconclusive: 28.2 µM [inhibitor, single point] |
| O=C(c1ccco1)N1N=C(c2cccs2)CC1c1ccc(F)cc1 (stereo unspecified) | inactive |
| CCOC(=O)C1=C(N)Oc2ccc3ccccc3c2C1c1ccc(O)c(OC)c1 (stereo unspecified) | inconclusive: 50.1 µM [inhibitor, single point] |
| Cc1ccc(-c2cc(-c3ccco3)c3c(N)c(C(=O)NN)oc3n2)cc1 | inconclusive: 58.5 µM [inhibitor, single point] |
| O=C(NCc1ccncc1)c1cc(-c2ccc(Cl)cc2)oc1C(F)(F)F | inconclusive: 58.5 µM [inhibitor, single point] |

| SMILES | Potency |
| --- | --- |
| Cc1c(C)c2c(OCC(=O)O)cc3c(c2oc1=O)CCC(C)(C)O3 | inconclusive: 14.7 µM [inhibitor, partial curve, poor fit] |
| COC(=O)C(Nc1ccccc1Cl)(c1cc(C)c(O)c(C)c1)C(F)(F)F (stereo unspecified) | inconclusive: 58.5 µM [inhibitor, single point] |
| CCOc1ccccc1C1CC(=O)NC(C)=C1C(=O)OC1CCCCCC1 (stereo unspecified) | inconclusive: 44.7 µM [inhibitor, partial curve, poor fit] |
| COc1ccc(C=NNc2ccc(S(=O)(=O)Nc3ccccc3C(=O)O)cc2[N+](=O)[O-])c(OC)c1 | inconclusive: 58.5 µM [inhibitor, single point] |
| Cc1nn(-c2ccccc2)c2[nH]c(=O)c(CNCCN3CCOCC3)cc12 | inactive |
| CC(Sc1ccsc1[N+](=O)[O-])C(=O)NCc1ccco1 (stereo unspecified) | inactive |
| COc1ccc(S(=O)(=O)c2c(Nc3ccc(C)cc3)sc(C(=O)c3ccc(C)cc3)c2N)cc1 | inactive |
| COc1ccc(-c2oc3ncnc(NCCCO)c3c2-c2ccc(OC)cc2)cc1 | inconclusive: 44.7 µM [inhibitor, partial curve, poor fit] |
| Nc1nc(Nc2cccc(F)c2)nc(NCc2ccco2)c1[N+](=O)[O-] | inconclusive: 18.5 µM [inhibitor, partial curve, poor fit] |
| O=C(CCCOc1ccc(Cl)cc1)N1CCCCC1 | inactive |
| CCc1ccc(CNC(=O)c2ccc(NC(=O)N3CCSc4ncccc43)cc2)cc1 | inconclusive: 50.1 µM [inhibitor, single point] |
| CCN1C(=O)CC(c2ccccc2)N(C2CCCC2)c2nc(Nc3ccc(C(=O)NC4CCN(C)CC4)cc3OC)ncc21 (stereo unspecified) | inconclusive: 70.8 µM [inhibitor, single point] |
| CCn1cc(C(=O)NCc2ccco2)c(=O)c2cc(S(=O)(=O)N3CCC(C)CC3)ccc21 | active: 32.9 µM |
| COc1cc(NS(=O)(=O)c2ccc(Nc3nc(-c4ccccc4)cs3)cc2)nc(OC)n1 | inconclusive: 50.1 µM [inhibitor, single point] |
| COc1ccc(N(C(=O)c2ccco2)C(C(=O)NC2CCCCC2)c2ccccc2)cc1 (stereo unspecified) | inconclusive: 13.1 µM [inhibitor, full curve] |
| O=C(c1cc(N2C(=O)C3C4CCC(C4)C3C2=O)ccc1Cl)N1CCN(c2ccc(F)cc2)CC1 (stereo unspecified) | inactive |
| O=C(O)c1ccccc1NS(=O)(=O)c1ccc(NN=Cc2cccc(Cl)c2)c([N+](=O)[O-])c1 | inconclusive: 58.5 µM [inhibitor, single point] |
| CCN1C(=O)NC(c2ccccc2)C1=O (stereo unspecified) | inconclusive: 50.1 µM [inhibitor, single point] |
| CCCCNC(=S)N1CCN(c2ccccc2Cl)CC1 | inactive |
| CC(C)N(C(=O)CSc1nc(COc2ccccc2)nc2ccccc12)C(C)C | inconclusive: 2.61 µM [inhibitor, full curve] |
